# Measurements taken from publication PMC9911399, “Two distinct binding modes provide the RNA-binding protein RbFox with extraordinary sequence specificity”.
# Substitutions are numbered along the chain they refer to; changes in the protein carry UniProt numbers. The list shows a part of the results.
# T1: RBFOX1 RRM (Homo sapiens, UniProt Q9NWB1 109-208)
# T1 sequence: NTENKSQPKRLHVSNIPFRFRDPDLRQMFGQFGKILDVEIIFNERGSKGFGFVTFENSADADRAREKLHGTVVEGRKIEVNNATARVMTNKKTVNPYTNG
# B1: CGGAGCA (DNA:RNA)
# RNA: GGGAGACCGGAAUUCAGAUUGUCCCGGAGCAUUAAAUCCCGUCGUAGCCACCA
# DNA 1: CAATCTGAATTCCGGTCTCCC
# DNA 2: TGGTGGCTACGACGGGATT
# B2: AGCGGUG (DNA:RNA)
# RNA: B1 RNA with C25A, G27C, A28G, C30U, A31G
# DNA 1: CAATCTGAATTCCGGTCTCCC
# DNA 2: TGGTGGCTACGACGGGATT
# B3: CCACGGU (DNA:RNA)
# RNA: B1 RNA with G26C, G27A, A28C, C30G, A31U
# DNA 1: CAATCTGAATTCCGGTCTCCC
# DNA 2: TGGTGGCTACGACGGGATT
# B4: UAGGCUU (DNA:RNA)
# RNA: B1 RNA with C25U, G26A, A28G, G29C, C30U, A31U
# DNA 1: CAATCTGAATTCCGGTCTCCC
# DNA 2: TGGTGGCTACGACGGGATT
# B5: AAUCGUC (DNA:RNA)
# RNA: B1 RNA with C25A, G26A, G27U, A28C, C30U, A31C
# DNA 1: CAATCTGAATTCCGGTCTCCC
# DNA 2: TGGTGGCTACGACGGGATT
# B6: CCUUAGU (DNA:RNA)
# RNA: B1 RNA with G26C, G27U, A28U, G29A, C30G, A31U
# DNA 1: CAATCTGAATTCCGGTCTCCC
# DNA 2: TGGTGGCTACGACGGGATT
# B7: UAAGGAG (DNA:RNA)
# RNA: B1 RNA with C25U, G26A, G27A, A28G, C30A, A31G
# DNA 1: CAATCTGAATTCCGGTCTCCC
# DNA 2: TGGTGGCTACGACGGGATT
# B8: CCCAGCA (DNA:RNA)
# RNA: B1 RNA with G26C, G27C
# DNA 1: CAATCTGAATTCCGGTCTCCC
# DNA 2: TGGTGGCTACGACGGGATT
# B9: ACGAUCA (DNA:RNA)
# RNA: B1 RNA with C25A, G26C, G29U
# DNA 1: CAATCTGAATTCCGGTCTCCC
# DNA 2: TGGTGGCTACGACGGGATT
# B10: GGGAAAA (DNA:RNA)
# RNA: B1 RNA with C25G, G29A, C30A
# DNA 1: CAATCTGAATTCCGGTCTCCC
# DNA 2: TGGTGGCTACGACGGGATT
# B11: UAAGAGG (DNA:RNA)
# RNA: GGGAGACCGGAAUUCAGAUUGUCCUAAGAGGUUAAAUCCCGUCGUAGCCACCA
# DNA 1: CAATCTGAATTCCGGTCTCCC
# DNA 2: TGGTGGCTACGACGGGATT
# B12: AGAGUCU (DNA:RNA)
# RNA: B1 RNA with C25A, G27A, A28G, G29U, A31U
# DNA 1: CAATCTGAATTCCGGTCTCCC
# DNA 2: TGGTGGCTACGACGGGATT
# B13: GCGAAGU (DNA:RNA)
# RNA: B1 RNA with C25G, G26C, G29A, C30G, A31U
# DNA 1: CAATCTGAATTCCGGTCTCCC
# DNA 2: TGGTGGCTACGACGGGATT
# B14: UAAAAUC (DNA:RNA)
# RNA: B11 RNA with G28A, G30U, G31C
# DNA 1: CAATCTGAATTCCGGTCTCCC
# DNA 2: TGGTGGCTACGACGGGATT
# B15: GUUACUU (DNA:RNA)
# RNA: B1 RNA with C25G, G26U, G27U, G29C, C30U, A31U
# DNA 1: CAATCTGAATTCCGGTCTCCC
# DNA 2: TGGTGGCTACGACGGGATT
# B16: AAUGGGU (DNA:RNA)
# RNA: B11 RNA with U25A, A27U, A29G, G31U
# DNA 1: CAATCTGAATTCCGGTCTCCC
# DNA 2: TGGTGGCTACGACGGGATT
# B17: CCAUCCU (DNA:RNA)
# RNA: B1 RNA with G26C, G27A, A28U, G29C, A31U
# DNA 1: CAATCTGAATTCCGGTCTCCC
# DNA 2: TGGTGGCTACGACGGGATT
# B18: AACUCAA (DNA:RNA)
# RNA: B1 RNA with C25A, G26A, G27C, A28U, G29C, C30A
# DNA 1: CAATCTGAATTCCGGTCTCCC
# DNA 2: TGGTGGCTACGACGGGATT
# B19: UUUAUUA (DNA:RNA)
# RNA: B1 RNA with C25U, G26U, G27U, G29U, C30U
# DNA 1: CAATCTGAATTCCGGTCTCCC
# DNA 2: TGGTGGCTACGACGGGATT
# B20: AGCAUGA (DNA:RNA)
# RNA: B1 RNA with C25A, G27C, G29U, C30G
# DNA 1: CAATCTGAATTCCGGTCTCCC
# DNA 2: TGGTGGCTACGACGGGATT
# B21: CAUUCUU (DNA:RNA)
# RNA: B1 RNA with G26A, G27U, A28U, G29C, C30U, A31U
# DNA 1: CAATCTGAATTCCGGTCTCCC
# DNA 2: TGGTGGCTACGACGGGATT
# B22: AAACGAC (DNA:RNA)
# RNA: B11 RNA with U25A, G28C, A29G, G30A, G31C
# DNA 1: CAATCTGAATTCCGGTCTCCC
# DNA 2: TGGTGGCTACGACGGGATT
# B23: AAAUUAG (DNA:RNA)
# RNA: B11 RNA with U25A, G28U, A29U, G30A
# DNA 1: CAATCTGAATTCCGGTCTCCC
# DNA 2: TGGTGGCTACGACGGGATT
# B24: CUUGAGC (DNA:RNA)
# RNA: B11 RNA with U25C, A26U, A27U, G31C
# DNA 1: CAATCTGAATTCCGGTCTCCC
# DNA 2: TGGTGGCTACGACGGGATT
# B25: UCAAACA (DNA:RNA)
# RNA: B1 RNA with C25U, G26C, G27A, G29A
# DNA 1: CAATCTGAATTCCGGTCTCCC
# DNA 2: TGGTGGCTACGACGGGATT
# B26: UAUACAU (DNA:RNA)
# RNA: B11 RNA with A27U, G28A, A29C, G30A, G31U
# DNA 1: CAATCTGAATTCCGGTCTCCC
# DNA 2: TGGTGGCTACGACGGGATT
# B27: CAAUCAC (DNA:RNA)
# RNA: B11 RNA with U25C, G28U, A29C, G30A, G31C
# DNA 1: CAATCTGAATTCCGGTCTCCC
# DNA 2: TGGTGGCTACGACGGGATT
# B28: GUCAAAU (DNA:RNA)
# RNA: B1 RNA with C25G, G26U, G27C, G29A, C30A, A31U
# DNA 1: CAATCTGAATTCCGGTCTCCC
# DNA 2: TGGTGGCTACGACGGGATT
# B29: CAUCAGC (DNA:RNA)
# RNA: B11 RNA with U25C, A27U, G28C, G31C
# DNA 1: CAATCTGAATTCCGGTCTCCC
# DNA 2: TGGTGGCTACGACGGGATT
# B30: CGGCAGC (DNA:RNA)
# RNA: B1 RNA with A28C, G29A, C30G, A31C
# DNA 1: CAATCTGAATTCCGGTCTCCC
# DNA 2: TGGTGGCTACGACGGGATT
# B31: UGCCUUG (DNA:RNA)
# RNA: B11 RNA with A26G, A27C, G28C, A29U, G30U
# DNA 1: CAATCTGAATTCCGGTCTCCC
# DNA 2: TGGTGGCTACGACGGGATT
# Biological target: T1, RBFOX1 RRM
# Experiment: EMSA; HiTS-Eq, 1 nM pool, 10 min; buffer printed only for the single-RNA assays: 10 mM Tris pH 7.5, 150 mM NaCl, 3.4 mM EDTA, 0.001% NP-40, 30 C
# Conditions: tags: His6 N-terminal (pET28a); label: 5' 32P
# In short: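 Purified RbFox RRM, wild type or mutant, was incubated for 10 min in 50 µL with 1 nM of a 5′-radiolabelled RNA pool carrying 7 randomized nucleotides, whose flanks were annealed to DNA oligonucleotides, over a series of increasing protein concentrations. Unbound RNA was resolved on 8% native PAGE, cut out, reverse-transcribed, barcoded by PCR and sequenced on an Illumina HiSeq 2500. Relative association constants were derived from changes in read counts for each RNA species versus the control reaction and normalised to the cognate motif.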
row,Binder,binding signal
1,B1,0.0212 KA relative to UGCAUGU
2,B2,0.0201 KA relative to UGCAUGU
3,B3,0.00645 KA relative to UGCAUGU
4,B4,0.0145 KA relative to UGCAUGU
5,B5,0.00708 KA relative to UGCAUGU
6,B6,0.00902 KA relative to UGCAUGU
7,B7,0.00478 KA relative to UGCAUGU
8,B8,0.00339 KA relative to UGCAUGU
9,B9,0.00156 KA relative to UGCAUGU
10,B10,0.0234 KA relative to UGCAUGU
11,B11,0.00536 KA relative to UGCAUGU
12,B12,0.0111 KA relative to UGCAUGU
13,B13,0.0127 KA relative to UGCAUGU
14,B14,0.00293 KA relative to UGCAUGU
15,B15,0.00794 KA relative to UGCAUGU
16,B16,0.0094 KA relative to UGCAUGU

row,Binder,binding signal
1,B17,0.00475 KA relative to UGCAUGU
2,B18,0.000196 KA relative to UGCAUGU
3,B19,0.00195 KA relative to UGCAUGU
4,B20,0.35 KA relative to UGCAUGU
5,B21,0.00264 KA relative to UGCAUGU
6,B22,0.00248 KA relative to UGCAUGU
7,B23,0.00659 KA relative to UGCAUGU
8,B24,0.014 KA relative to UGCAUGU
9,B25,0.00239 KA relative to UGCAUGU
10,B26,0.00212 KA relative to UGCAUGU
11,B27,0.00113 KA relative to UGCAUGU
12,B28,0.00186 KA relative to UGCAUGU
13,B29,0.00375 KA relative to UGCAUGU
14,B30,0.0118 KA relative to UGCAUGU
15,B31,0.0505 KA relative to UGCAUGU
